{"source": "the supplement of paper PMC10126150", "note": "Sequences with one replicate were seen in a single cluster, so their values are uncertain.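 Also: ATP exposure 15 min at 22 °C before imaging.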", "data": [{"test_system": "ATP", "assay": "switch fluorescence ratio, 500 uM ATP over buffer (Cy3 cluster intensity, sum of 5 cycles each) (fold (ratio)); higher = stronger signal-on switching upon ATP binding; sequences stand for … in TCGTCGGCAGCGTCAGATGTGTATAAGAGACAGTTTTTTTTTTTTTTTTTTTTTTTTT…TC", "details": "aptamer strand: ATP DNA aptamer (quencher-CACCTGGGGGAGTATTGCGGAGGAAGG + anchor), 100 nM annealed; ATP concentration: 500 uM; one replicate", "outline": "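Five buffer/ATP imaging cycles were run on Cy3-labelled switching-strand clusters on a modified Illumina MiSeq flow-cell, with NaOH stripping and re-annealing between cycles. In each cycle, clusters annealed to 100 nM quencher-labelled ATP aptamer were imaged in selection buffer, then after 15 min with 500 uM ATP at 22 °C. Per cluster, the fluorescence ratio is summed target-cycle over summed buffer-cycle Cy3 intensity, averaged per switch-domain sequence. Only clusters within 100-1000 RFU were kept.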", "values": [{"sequence": "TATATACTGC", "switch fluorescence ratio": 1.03}, {"sequence": "TATATAGGG", "switch fluorescence ratio": 1.04}, {"sequence": "TATATATCAT", "switch fluorescence ratio": 0.971}, {"sequence": "TATATATGTT", "switch fluorescence ratio": 1.03}, {"sequence": "TATATCACCC", "switch fluorescence ratio": 0.994}, {"sequence": "TATATGACCG", "switch fluorescence ratio": 1.02}, {"sequence": "TATATGGGAC", "switch fluorescence ratio": 1.05}, {"sequence": "TATATTAATT", "switch fluorescence ratio": 1.07}, {"sequence": "TATATTAGTG", "switch fluorescence ratio": 1.02}, {"sequence": "TATATTTGAG", "switch fluorescence ratio": 1.01}, {"sequence": "TATCAACTCG", "switch fluorescence ratio": 0.998}, {"sequence": "TATCAAGTCC", "switch fluorescence ratio": 0.981}, {"sequence": "TATCACAGAC", "switch fluorescence ratio": 2}, {"sequence": "TATCACAGCT", "switch fluorescence ratio": 1.04}, {"sequence": "TATCACCAAT", "switch fluorescence ratio": 1.17}, {"sequence": "TATCACTATT", "switch fluorescence ratio": 0.99}, {"sequence": "TATCAGATAT", "switch fluorescence ratio": 1.04}, {"sequence": "TATCAGGAAT", "switch fluorescence ratio": 0.974}, {"sequence": "TATCCAGGCC", "switch fluorescence ratio": 0.993}, {"sequence": "TATCCGGAGG", "switch fluorescence ratio": 1.12}, {"sequence": "TATCCGGGAG", "switch fluorescence ratio": 0.991}, {"sequence": "TATCCTCCTA", "switch fluorescence ratio": 1.06}, {"sequence": "TATCCTCGG", "switch fluorescence ratio": 1.07}, {"sequence": "TATCGAAGAG", "switch fluorescence ratio": 1.04}, {"sequence": "TATCGAGAAG", "switch fluorescence ratio": 0.997}, {"sequence": "TATCGAGGGC", "switch fluorescence ratio": 1.01}, {"sequence": "TATCGATGAG", "switch fluorescence ratio": 0.989}, {"sequence": "TATCGCCGGC", "switch fluorescence ratio": 1.02}, {"sequence": "TATCGCGAGC", "switch fluorescence ratio": 0.953}, {"sequence": "TATCGGGGCG", "switch fluorescence ratio": 0.994}, {"sequence": "TATCGGTAAG", "switch fluorescence ratio": 0.962}, {"sequence": "TATCGGTAAT", "switch fluorescence ratio": 1.01}, {"sequence": "TATCGTAACT", "switch fluorescence ratio": 1.02}, {"sequence": "TATCGTAATT", "switch fluorescence ratio": 0.98}, {"sequence": "TATCGTTGCG", "switch fluorescence ratio": 0.97}, {"sequence": "TATCTACCAG", "switch fluorescence ratio": 1.02}, {"sequence": "TATCTAGTAT", "switch fluorescence ratio": 0.991}, {"sequence": "TATCTATATA", "switch fluorescence ratio": 0.996}, {"sequence": "TATCTATCGG", "switch fluorescence ratio": 0.962}, {"sequence": "TATCTATTAT", "switch fluorescence ratio": 1.01}, {"sequence": "TATCTATTGA", "switch fluorescence ratio": 1.04}, {"sequence": "TATCTATTGT", "switch fluorescence ratio": 0.989}, {"sequence": "TATCTGAGCG", "switch fluorescence ratio": 0.986}, {"sequence": "TATCTTGTGG", "switch fluorescence ratio": 0.99}, {"sequence": "TATGACCCGC", "switch fluorescence ratio": 1.26}, {"sequence": "TATGACGATC", "switch fluorescence ratio": 1.03}, {"sequence": "TATGACGTTT", "switch fluorescence ratio": 1.04}, {"sequence": "TATGAGACAT", "switch fluorescence ratio": 1.05}, {"sequence": "TATGATTTAC", "switch fluorescence ratio": 1}, {"sequence": "TATGCACTTG", "switch fluorescence ratio": 1.08}, {"sequence": "TATGCACTTT", "switch fluorescence ratio": 1.05}, {"sequence": "TATGCCGGTG", "switch fluorescence ratio": 1.03}, {"sequence": "TATGCGATGG", "switch fluorescence ratio": 1.02}, {"sequence": "TATGCGTC", "switch fluorescence ratio": 1.01}, {"sequence": "TATGGAAAAA", "switch fluorescence ratio": 0.962}, {"sequence": "TATGGACCAA", "switch fluorescence ratio": 0.965}, {"sequence": "TATGGACGGC", "switch fluorescence ratio": 0.963}, {"sequence": "TATGGATACA", "switch fluorescence ratio": 1}, {"sequence": "TATGGCACG", "switch fluorescence ratio": 1.13}, {"sequence": "TATGGCAGCA", "switch fluorescence ratio": 1.03}, {"sequence": "TATGGCGCCG", "switch fluorescence ratio": 0.918}, {"sequence": "TATGGCTTAC", "switch fluorescence ratio": 1.28}, {"sequence": "TATGGCTTGC", "switch fluorescence ratio": 0.992}, {"sequence": "TATGGGTCCT", "switch fluorescence ratio": 1.03}, {"sequence": "TATGGGTGAA", "switch fluorescence ratio": 1.04}, {"sequence": "TATGGTAAGT", "switch fluorescence ratio": 1}, {"sequence": "TATGGTGCT", "switch fluorescence ratio": 1.02}, {"sequence": "TATGTAA", "switch fluorescence ratio": 0.956}, {"sequence": "TATGTAGG", "switch fluorescence ratio": 0.956}, {"sequence": "TATGTATCGT", "switch fluorescence ratio": 1}, {"sequence": "TATGTGACCG", "switch fluorescence ratio": 1.16}, {"sequence": "TATGTGGCTC", "switch fluorescence ratio": 0.948}, {"sequence": "TATGTGTACC", "switch fluorescence ratio": 1.01}, {"sequence": "TATGTTGAA", "switch fluorescence ratio": 0.972}, {"sequence": "TATTAAATGA", "switch fluorescence ratio": 0.955}, {"sequence": "TATTAATCCT", "switch fluorescence ratio": 1.05}, {"sequence": "TATTACCCCT", "switch fluorescence ratio": 1.06}, {"sequence": "TATTACCCTC", "switch fluorescence ratio": 1.03}, {"sequence": "TATTACGTTC", "switch fluorescence ratio": 1.04}, {"sequence": "TATTAGGCTT", "switch fluorescence ratio": 0.998}, {"sequence": "TATTATCACG", "switch fluorescence ratio": 0.992}, {"sequence": "TATTATCCCC", "switch fluorescence ratio": 1.03}, {"sequence": "TATTATCTGT", "switch fluorescence ratio": 0.962}, {"sequence": "TATTATGCCC", "switch fluorescence ratio": 1.02}, {"sequence": "TATTCAAAG", "switch fluorescence ratio": 0.941}, {"sequence": "TATTCACCCA", "switch fluorescence ratio": 1.09}, {"sequence": "TATTCCACCT", "switch fluorescence ratio": 1.01}, {"sequence": "TATTCCATT", "switch fluorescence ratio": 0.974}, {"sequence": "TATTCCCTGT", "switch fluorescence ratio": 1.02}, {"sequence": "TATTCGCCTG", "switch fluorescence ratio": 0.97}, {"sequence": "TATTCGTAAG", "switch fluorescence ratio": 0.997}, {"sequence": "TATTCGTTAA", "switch fluorescence ratio": 1.04}, {"sequence": "TATTCTAACA", "switch fluorescence ratio": 1.03}, {"sequence": "TATTCTGAAC", "switch fluorescence ratio": 1.02}, {"sequence": "TATTGAATCG", "switch fluorescence ratio": 1.03}, {"sequence": "TATTGAATTG", "switch fluorescence ratio": 0.994}, {"sequence": "TATTGCAGAG", "switch fluorescence ratio": 1.01}, {"sequence": "TATTGCCACG", "switch fluorescence ratio": 1}, {"sequence": "TATTGCCGAG", "switch fluorescence ratio": 1.02}, {"sequence": "TATTGCCTTT", "switch fluorescence ratio": 1.05}, {"sequence": "TATTGGCGG", "switch fluorescence ratio": 0.998}, {"sequence": "TATTGGTCTT", "switch fluorescence ratio": 1}, {"sequence": "TATTGGTGCT", "switch fluorescence ratio": 0.988}, {"sequence": "TATTGTAGAA", "switch fluorescence ratio": 1}, {"sequence": "TATTGTCCTG", "switch fluorescence ratio": 1.04}, {"sequence": "TATTGTTGCT", "switch fluorescence ratio": 1.07}, {"sequence": "TATTGTTTAA", "switch fluorescence ratio": 0.991}, {"sequence": "TATTTAACGC", "switch fluorescence ratio": 0.978}, {"sequence": "TATTTAAGAT", "switch fluorescence ratio": 1.02}, {"sequence": "TATTTAATTG", "switch fluorescence ratio": 0.965}, {"sequence": "TATTTAGCA", "switch fluorescence ratio": 1.03}, {"sequence": "TATTTCAGTA", "switch fluorescence ratio": 1.04}, {"sequence": "TATTTCTGGG", "switch fluorescence ratio": 0.956}, {"sequence": "TATTTGAGGT", "switch fluorescence ratio": 1.01}, {"sequence": "TATTTGCTAT", "switch fluorescence ratio": 1.02}, {"sequence": "TATTTGGCA", "switch fluorescence ratio": 0.973}, {"sequence": "TATTTGGTAC", "switch fluorescence ratio": 1.07}, {"sequence": "TATTTGTCG", "switch fluorescence ratio": 0.934}, {"sequence": "TATTTTAACA", "switch fluorescence ratio": 1.09}, {"sequence": "TATTTTAATA", "switch fluorescence ratio": 1.01}, {"sequence": "TATTTTAGGC", "switch fluorescence ratio": 1.04}, {"sequence": "TATTTTTCCT", "switch fluorescence ratio": 1.04}, {"sequence": "TCAAAAGCGG", "switch fluorescence ratio": 1.01}, {"sequence": "TCAAAATGCG", "switch fluorescence ratio": 1}, {"sequence": "TCAAAATTCC", "switch fluorescence ratio": 1.41}, {"sequence": "TCAAACCTGT", "switch fluorescence ratio": 1.03}, {"sequence": "TCAAACGATG", "switch fluorescence ratio": 1.02}, {"sequence": "TCAAAGTGTG", "switch fluorescence ratio": 1.05}, {"sequence": "TCAAATGTAG", "switch fluorescence ratio": 0.985}, {"sequence": "TCAAATGTTG", "switch fluorescence ratio": 0.975}, {"sequence": "TCAACGAAAA", "switch fluorescence ratio": 1.09}, {"sequence": "TCAACGGCTA", "switch fluorescence ratio": 1.05}, {"sequence": "TCAACGTCTA", "switch fluorescence ratio": 1.07}, {"sequence": "TCAACGTGCG", "switch fluorescence ratio": 0.983}, {"sequence": "TCAACTAAAA", "switch fluorescence ratio": 0.994}, {"sequence": "TCAAGACTAG", "switch fluorescence ratio": 0.976}, {"sequence": "TCAAGCATTG", "switch fluorescence ratio": 0.968}, {"sequence": "TCAAGCTAGA", "switch fluorescence ratio": 1.28}, {"sequence": "TCAAGCTGTT", "switch fluorescence ratio": 0.965}, {"sequence": "TCAAGTGGGA", "switch fluorescence ratio": 0.983}, {"sequence": "TCAAGTTCTG", "switch fluorescence ratio": 0.983}, {"sequence": "TCAATACAGC", "switch fluorescence ratio": 1.04}, {"sequence": "TCAATACCGC", "switch fluorescence ratio": 1.14}, {"sequence": "TCAATAGTTT", "switch fluorescence ratio": 0.993}, {"sequence": "TCAATCTGCG", "switch fluorescence ratio": 1.05}, {"sequence": "TCAATGACTC", "switch fluorescence ratio": 1.03}, {"sequence": "TCAATGAGAT", "switch fluorescence ratio": 0.992}, {"sequence": "TCAATGATG", "switch fluorescence ratio": 0.994}, {"sequence": "TCAATGCACA", "switch fluorescence ratio": 1.07}, {"sequence": "TCACAAGGGG", "switch fluorescence ratio": 2.03}, {"sequence": "TCACAGCGAT", "switch fluorescence ratio": 2}, {"sequence": "TCACAGCGGA", "switch fluorescence ratio": 1.04}, {"sequence": "TCACAGGTTA", "switch fluorescence ratio": 1.47}]}]}
